From the supplement of paper PMC8748497
Some of the results follow.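 How the source made its calls: active = GRHL reporter fold change of at least 2 over DMSO at 10 µM; inactive = below 2-fold.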 Many values rest on one well or one pass, so single values are uncertain.

Test system: HEK293 GRHL-luciferase reporter
Assay: GRHL luciferase reporter activity, fold change over DMSO control; higher = stronger GRHL reporter activation
Settings: 10 µM; 24 h
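Further: stable HEK293 line carrying repeated GRHL consensus sites upstream of a minimal promoter driving luciferase, luminescence read 24 h post-treatment, normalized to 0.5% DMSO vehicle wells.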

GRHL luciferase reporter activity, inactive:
O=C(CCc1ccc(O)cc1)c1c(O)cc(O)cc1O[C@@H]1OC(CO)[C@@H](O)[C@@H](O)C1O (some centres not stated) 1.08
c1ccc2c(Cc3c[nH]c4ccccc34)c[nH]c2c1 0.886
CCCCCCc1ccc(O)cc1O.Nc1c2ccccc2nc2ccccc12 1.59
COC(=O)[C@@H]1[C@H]2C[C@H]3c4[nH]c5ccccc5c4CCN3C[C@@H]2CC[C@@H]1O 0.799
O=c1c(O)c(-c2ccc(O)cc2)oc2cc(O)cc(O)c12 1.53
COc1cc(OC)c(C(C)=O)c(O)c1C 0.926
CC1=C(/C=C/C(C)=C/C=C/C(C)=C/CO)C(C)(C)CCC1 0.39
CCC(C(N)=O)c1ccccc1 (configuration not stated) 1.16
NCC(=O)CCC(=O)O 1
COC(=O)[C@]1(C)CCC[C@]2(C)c3ccc(C(C)C)cc3C(=O)CC12 (some centres not stated) 1.62
O=C(O)c1ccc(S(=O)(=O)N(Cl)Cl)cc1 0.992
O=Cc1ccc(O)c(O)c1O 0.814
CN1CCc2cccc3c2[C@H]1Cc1ccc(O)c(O)c1-3 1.28
CC1(C)C=Cc2c(c3c(c4c(=O)c(-c5ccc(O)cc5)coc24)OC(C)(C)CC3)O1 1.3
OCC(O)C(O)C(O)C(O)C(O)CO (configuration not stated) 0.986
CC(=O)OCC(=O)[C@H]1CC[C@H]2[C@@H]3CC=C4C[C@@H](O)CC[C@]4(C)[C@H]3CC[C@]12C 1.06
NC(C(=O)O)C(O)C(=O)O (stereo not drawn) [d,l-threo-3-HYDROXYASPARTIC ACID] 1.02
